The list shows a part of the results.

The target in this assay is T1, OsWOX13 (Oryza sativa, UniProt Q5QMM3 1-267).
T1 sequence: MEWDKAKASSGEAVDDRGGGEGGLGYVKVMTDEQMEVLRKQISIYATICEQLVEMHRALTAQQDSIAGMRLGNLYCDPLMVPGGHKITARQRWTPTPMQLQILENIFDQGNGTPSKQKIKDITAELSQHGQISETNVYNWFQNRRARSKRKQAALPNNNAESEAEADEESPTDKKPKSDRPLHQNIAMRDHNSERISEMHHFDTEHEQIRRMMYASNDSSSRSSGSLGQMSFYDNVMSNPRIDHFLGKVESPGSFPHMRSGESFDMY
Description: protein-binding microarray (RPBM); PBS, 2% BSA, 51.3 ng/ul salmon testes DNA, 50 uM zinc acetate, 200 nM TF, 25 C, 1 h; high values mean tight binding. As to conditions: protein: recombinant; tags: N-terminal polyhistidine and DsRed monomer fusion (pET32a); label: CyDye5-dUTP incorporated in the synthesized complementary strand; 3' TTTTT single-stranded linker to array surface; dsDNA, one strand shown. The procedure, abridged:
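Polyhistidine-tagged DsRed fusions of transcription factors, joined at the N-terminus, were expressed in E. coli BL21-CodonPlus and isolated on Ni–NTA. They were incubated at 200 nM for 1 h at 25 °C on a custom Agilent array, double-stranded and BSA-blocked, in PBS with 2% BSA, salmon testes DNA and 50 µM zinc acetate. The binding signal is per-feature fluorescence intensity (arbitrary units) read on an Axon 4000B scanner after washing.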
As for “ACATGGCCTAGTTGACATTAATTGGTATTATCTCTAGCGTCGGAGTCACCTAGTGCAG”, the binding signal is 5530 fluorescence intensity (a.u.).

Take “GGGGTTGTTCAGATTGATGCCATTTCAAACCATATCAATTCGGAGTCACCTAGTGCAG”: the binding signal is 3270 fluorescence intensity (a.u.).

Regarding “CATATGTCTATCTAGATTTATTAACATAAATATAAATGTGCGGAGTCACCTAGTGCAG”, the binding signal is 9960 fluorescence intensity (a.u.).

Take “ACCAATTAATAAAACTTCAATGCCAAACCTTTTATCACTACGGAGTCACCTAGTGCAG”: the binding signal is 3810 fluorescence intensity (a.u.).

As for “ATGTTTGTTTCCTTTAAATTAGCTATACTTTCTGTAATCCCGGAGTCACCTAGTGCAG”, the binding signal was 4600 fluorescence intensity (a.u.).

On to “AGACATTTGAATAATTGATAAACCTAAAAGTGGCAAATAGCGGAGTCACCTAGTGCAG”, for which the binding signal was 13800 fluorescence intensity (a.u.).

“TATACTAATTAATACACTCATAGCAATATTTGTGAGTATTCGGAGTCACCTAGTGCAG”: the binding signal was 7290 fluorescence intensity (a.u.).

Consider “GTAGATTTTCTGTTTCCTAATCCATCCAACCATTGTAATTCGGAGTCACCTAGTGCAG”, for which the binding signal was 4620 fluorescence intensity (a.u.).

Regarding “AAACACTGATGATGACCAAATTTTACAAAGTTAATGGGCCCGGAGTCACCTAGTGCAG”, the binding signal is 10400 fluorescence intensity (a.u.).

Consider “TCTCAGTTGATTGCTTCAAGACTTGTTGAGCTTGTTATGTCGGAGTCACCTAGTGCAG”, for which the binding signal is 35800 fluorescence intensity (a.u.).

In the case of “AATCTGTAATTTGTTTTGTTATTAGTCTACAGGCCTGTTCCGGAGTCACCTAGTGCAG”, the binding signal was 11700 fluorescence intensity (a.u.).

As for “TTATTAAGTTTATTGATGGTGATTTTCTGGATGGTTGAATCGGAGTCACCTAGTGCAG”, the binding signal was 8850 fluorescence intensity (a.u.).

On to “AATATATTCCATCGATAATCATCTCATCAAACATGACAAGCGGAGTCACCTAGTGCAG”, for which the binding signal was 3830 fluorescence intensity (a.u.).

With “GAAATTAATAACAAATTAAAACCAGAGCCAGCTGACTGCTCGGAGTCACCTAGTGCAG”, the binding signal was 21700 fluorescence intensity (a.u.).

Take “TTTTCCAATTAAGAAAATATGCTGACATAGATATATTGTACGGAGTCACCTAGTGCAG”: the binding signal is 6900 fluorescence intensity (a.u.).

As to “CTTAAATCATGATGATTTTATTGGTTGTTGGCATGCACAGCGGAGTCACCTAGTGCAG”, the binding signal was 30500 fluorescence intensity (a.u.).

As to “CGATTGATTGATCCCGTCCCCTCCTTTGATCTGAGATTCACGGAGTCACCTAGTGCAG”, the binding signal is 41700 fluorescence intensity (a.u.).

With “ATGATGACAGCACAAGCATTAGAATTATAGAATTTAACACCGGAGTCACCTAGTGCAG”, the binding signal was 3180 fluorescence intensity (a.u.).

Regarding “GGCCTGATGATGGAATGTGTCGGCTTAGGGATTGTAGTGTCGGAGTCACCTAGTGCAG”, the binding signal was 4290 fluorescence intensity (a.u.).

On to “AAACTAATCAGACAAACATCTCTCATCTGTCTATCAGTTTCGGAGTCACCTAGTGCAG”, for which the binding signal was 7500 fluorescence intensity (a.u.).

“GTAGTGAATGGCTGCCTAATTTTGTGCATTAACCATGGTGCGGAGTCACCTAGTGCAG”: the binding signal is 5100 fluorescence intensity (a.u.).

For the sequence “GGACAATGACAGCACATTACGCGCACCTTTTCTTCTACCACGGAGTCACCTAGTGCAG”, the binding signal was 4070 fluorescence intensity (a.u.).

With “AGCTGATTGTTTGGCCCAGCGACCGACGGCCTTTTACTGGCGGAGTCACCTAGTGCAG”, the binding signal was 22800 fluorescence intensity (a.u.).

Turning to “TTGTTAATTACCTTGTTTAATTAATTTCGCTAGCTTAGATCGGAGTCACCTAGTGCAG”, the binding signal is 44700 fluorescence intensity (a.u.).

As for “TTGGAGTGATTTGGCATCTCCTATCAGGCTGCGATAGGTACGGAGTCACCTAGTGCAG”, the binding signal was 8500 fluorescence intensity (a.u.).

On to “GATTTAGATTGGTGATCACTGCATCACTTTGATCACACCACGGAGTCACCTAGTGCAG”, for which the binding signal is 29300 fluorescence intensity (a.u.).

On to “GAGCTAAATTGATATGCTAAGACTAGATTAACAGAGACATCGGAGTCACCTAGTGCAG”, for which the binding signal is 38900 fluorescence intensity (a.u.).

Take “GTGATTGTATATAGAGGCTCACAACCGTGTCTTTGTGCTACGGAGTCACCTAGTGCAG”: the binding signal was 3200 fluorescence intensity (a.u.).

“AATAAATTTATTTTGGGAGGAAAGTAGTAATGCAGTCATGCGGAGTCACCTAGTGCAG”: the binding signal was 12300 fluorescence intensity (a.u.).

In the case of “CTGGATATCATCACTAACCTGATTAGGACAGAAATTATGACGGAGTCACCTAGTGCAG”, the binding signal is 6400 fluorescence intensity (a.u.).

In the case of “TTCTTTTAATTTCTACGTGTGTTCTTAGCATCATCCTGTCCGGAGTCACCTAGTGCAG”, the binding signal is 3320 fluorescence intensity (a.u.).

Consider “GACCAACTGTAACTATGATTGATCCTTCTAGATCAAATTTCGGAGTCACCTAGTGCAG”, for which the binding signal was 13600 fluorescence intensity (a.u.).

In the case of “TTACTTAATTACTATAGATAATTAGTTGATTAGTGTTACTCGGAGTCACCTAGTGCAG”, the binding signal is 45000 fluorescence intensity (a.u.).

On to “CGAATCCTGTACAGATTTAATTAATTTCGAATTAACGCTTCGGAGTCACCTAGTGCAG”, for which the binding signal was 9250 fluorescence intensity (a.u.).

Turning to “GATCCCATGATTAGTATTCTGGTGCTGCGTTGTTCCGAATCGGAGTCACCTAGTGCAG”, the binding signal is 15300 fluorescence intensity (a.u.).

On to “TGACTAAAATGATTATCCGCGAAGTGACCCGCACCCTTCTCGGAGTCACCTAGTGCAG”, for which the binding signal was 5460 fluorescence intensity (a.u.).

“AATATAACTATAATATAATTGAAGTGTAATTACATTGTATCGGAGTCACCTAGTGCAG”: the binding signal is 37900 fluorescence intensity (a.u.).

In the case of “GCCTCTCCACCAATCAGCGCCCACTTTTACCCACTATAAACGGAGTCACCTAGTGCAG”, the binding signal is 4900 fluorescence intensity (a.u.).

In the case of “TGTGCATGAATTAATTACAATCTTCCATTGGATGAAAGTGCGGAGTCACCTAGTGCAG”, the binding signal is 12300 fluorescence intensity (a.u.).

For “ATAATTGCCACCAAAATCTTAGACGTGAGTTTCAAATGAGCGGAGTCACCTAGTGCAG”, the binding signal was 14200 fluorescence intensity (a.u.).

On to “CCGGCCTATATATTAATTAATTATATACAGTAAATTATTTCGGAGTCACCTAGTGCAG”, for which the binding signal was 12500 fluorescence intensity (a.u.).

Take “GTACTAATATAAGGTGAGTTCTAAATGGTAGACATCCTTTCGGAGTCACCTAGTGCAG”: the binding signal is 33700 fluorescence intensity (a.u.).

The values are drawn from article PMC7819943, “Rice protein-binding microarrays: a tool to detect cis-acting elements near promoter regions in rice”.
